Laboratory results from patent US20140127211A1.
Several values for one entry are separate records, joined by “and”; a condition that tells them apart may be missing. Identical values can stand only once.

Target: full-length human Notch3 expressed on the cell surface (human) (UniProt Q9UM47)
Experiment: cell-based or functional assay

Chain of UniProt Q9UM47 (Q9UM47 40-2321): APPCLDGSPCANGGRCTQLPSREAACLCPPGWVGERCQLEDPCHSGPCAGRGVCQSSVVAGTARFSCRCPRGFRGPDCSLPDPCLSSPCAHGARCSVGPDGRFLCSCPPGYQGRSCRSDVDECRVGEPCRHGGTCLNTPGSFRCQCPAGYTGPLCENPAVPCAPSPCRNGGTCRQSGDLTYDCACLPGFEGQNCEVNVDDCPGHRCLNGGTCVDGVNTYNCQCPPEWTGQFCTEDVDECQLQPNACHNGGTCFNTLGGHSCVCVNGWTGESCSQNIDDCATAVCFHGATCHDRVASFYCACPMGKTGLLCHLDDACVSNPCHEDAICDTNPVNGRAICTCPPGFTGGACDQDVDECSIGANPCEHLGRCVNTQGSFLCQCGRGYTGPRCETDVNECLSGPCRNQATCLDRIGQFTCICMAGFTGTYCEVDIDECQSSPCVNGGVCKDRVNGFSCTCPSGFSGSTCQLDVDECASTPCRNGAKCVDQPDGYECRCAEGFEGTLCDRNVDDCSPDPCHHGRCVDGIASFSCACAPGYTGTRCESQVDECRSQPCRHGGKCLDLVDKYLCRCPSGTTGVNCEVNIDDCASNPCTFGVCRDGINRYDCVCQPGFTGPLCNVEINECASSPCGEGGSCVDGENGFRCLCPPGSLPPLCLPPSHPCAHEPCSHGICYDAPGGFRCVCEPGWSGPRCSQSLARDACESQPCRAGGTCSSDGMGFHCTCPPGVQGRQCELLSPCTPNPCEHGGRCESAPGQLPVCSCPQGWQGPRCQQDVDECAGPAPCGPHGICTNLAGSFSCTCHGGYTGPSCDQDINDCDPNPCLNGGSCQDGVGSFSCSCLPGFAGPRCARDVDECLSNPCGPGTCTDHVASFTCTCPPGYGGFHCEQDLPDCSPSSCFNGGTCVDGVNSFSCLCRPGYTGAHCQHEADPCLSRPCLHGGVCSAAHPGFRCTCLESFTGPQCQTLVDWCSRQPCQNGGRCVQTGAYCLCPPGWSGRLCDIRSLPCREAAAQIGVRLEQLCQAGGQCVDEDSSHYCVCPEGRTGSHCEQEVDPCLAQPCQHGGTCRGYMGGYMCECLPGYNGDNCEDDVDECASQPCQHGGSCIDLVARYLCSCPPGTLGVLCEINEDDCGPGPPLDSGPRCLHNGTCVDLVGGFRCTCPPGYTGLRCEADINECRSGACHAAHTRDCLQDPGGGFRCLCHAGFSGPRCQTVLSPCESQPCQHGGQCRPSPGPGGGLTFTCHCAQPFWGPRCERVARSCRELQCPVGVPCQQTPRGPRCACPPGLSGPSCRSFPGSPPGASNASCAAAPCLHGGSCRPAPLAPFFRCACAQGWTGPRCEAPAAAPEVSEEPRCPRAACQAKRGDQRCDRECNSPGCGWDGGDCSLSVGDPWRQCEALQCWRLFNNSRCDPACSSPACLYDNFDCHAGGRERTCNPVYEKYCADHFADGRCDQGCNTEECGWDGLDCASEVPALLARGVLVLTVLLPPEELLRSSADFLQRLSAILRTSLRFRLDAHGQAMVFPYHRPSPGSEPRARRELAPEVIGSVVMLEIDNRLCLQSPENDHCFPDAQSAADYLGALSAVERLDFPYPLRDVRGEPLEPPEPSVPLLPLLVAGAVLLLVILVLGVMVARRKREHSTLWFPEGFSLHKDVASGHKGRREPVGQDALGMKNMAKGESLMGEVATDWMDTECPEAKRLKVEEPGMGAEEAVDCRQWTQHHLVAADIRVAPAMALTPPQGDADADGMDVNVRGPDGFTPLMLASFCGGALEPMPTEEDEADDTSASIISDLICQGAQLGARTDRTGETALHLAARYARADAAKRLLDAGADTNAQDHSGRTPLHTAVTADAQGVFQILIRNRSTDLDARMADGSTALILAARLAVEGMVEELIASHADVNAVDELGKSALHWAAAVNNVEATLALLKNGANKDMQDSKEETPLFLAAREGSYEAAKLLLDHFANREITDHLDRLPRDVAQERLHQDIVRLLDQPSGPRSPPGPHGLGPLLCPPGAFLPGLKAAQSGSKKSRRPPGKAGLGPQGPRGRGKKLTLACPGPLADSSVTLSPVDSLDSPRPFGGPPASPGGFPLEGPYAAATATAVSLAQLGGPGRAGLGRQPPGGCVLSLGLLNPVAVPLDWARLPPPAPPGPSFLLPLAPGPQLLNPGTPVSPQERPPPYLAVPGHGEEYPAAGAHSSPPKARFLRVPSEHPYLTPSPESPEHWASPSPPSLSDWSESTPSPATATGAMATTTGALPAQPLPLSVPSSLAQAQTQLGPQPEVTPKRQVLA

B1: hu28-(L443C)-vc0101 (antibody, name in EU numbering)
heavy: EVQLVESGGGLVQPGGSLRLSCAASGFTFRDYGMTWVRQAPGKGLEWVAYISSGSNYIYYAEAVKGRFTISRDNAKNSLYLQMNSLRAEDTAVYYCARRGPFVLDAWGQGTLVTVSSASTKGPSVFPLAPSSKSTSGGTAALGCLVKDYFPEPVTVSWNSGALTSGVHTFPAVLQSSGLYSLSSVVTVPSSSLGTQTYICNVNHKPSNTKVDKKV[letters of human IgG1 Fc with L443C (EU numbers) omitted]
light: DIQMTQSPSSLSASVGDRVTITCKASQSINRYLHWYQQKPGKAPKLLIYNANGLQTGVPSRFSGSGSGTDFTLTISSLQPEDFATYYCLQHNTWPDTFGGGTKVEIKRTVAAPSVFIFPPSDEQLKSGTASVVCLLNNFYPREAKVQWKVDNALQSGNSQESVTEQDSKDSTYSLSSTLTLSKADYEKHKVYACEVTHQGLSSPVTKSFNRGEC
modifications: vc0101 linker-payload on the engineered cysteine (site-specific conjugation)
For B1, the IC50 of cytotoxicity (MTS viability), HCC2429 cells (column read by position) was 20300 ng Ab/ml and 16900 ng Ab/ml and 14300 ng Ab/ml and the IC50 of cytotoxicity (MTS viability), OVCAR3 cells (column read by position) was 13100 ng Ab/ml and 15800 ng Ab/ml and 12200 ng Ab/ml.
